Data taken from PubChem BioAssay AID1454 (National Center for Advancing Translational Sciences (NCATS), 2008).
Hit rate of the full screen: of about 130,000 compounds, about 550 (0.42%) were called active. This list was built around the results that the source calls inconclusive (neither active nor inactive); the mix of calls is not that of the screen. Calls come from the whole dose curve; as a rule, active = well fitted inhibition curve with a large enough effect; inconclusive = small, poorly fitted or top-dose-only effect, or effect the other way; inactive = flat fitted curve, though single readings scatter. No potency is given beside an inconclusive call; the fits are too rough.

Assay: qHTS Assay for Inhibitors of the ERK Signaling Pathway using a Homogeneous Screening Assay; Stimulation with EGF; note: nearly all actives have a fitted effect of over 55% in size
Details: HEK293-V1b, EGF-stimulated phospho-ERK AlphaScreen
How it was run: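 Cell line HEK293 (stable V1b), low serum overnight. Pretreatment: compound 30 min, 37C. EGF 25 nM, 5 min. Detection: SureFire AlphaScreen, 5 h RT. AC50 via standard Hill equation.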
Potency is the fitted concentration of half-maximal effect; tags give direction and shape of the fitted curve.

| Structure (SMILES) | Potency |
| --- | --- |
| N=c1ccn2c(n1)OCC1C2O[C@@H](O)[C@H]1O (some centres undefined) | inactive |
| O=C(OC1Cc2c(O)cc(O)cc2OC1c1cc(O)c(O)c(O)c1)c1cc(O)c(O)c(O)c1 (centres undefined) | inactive |
| O=C(COc1ccc(NC(=O)c2ccccc2[N+](=O)[O-])cc1)c1ccc(F)cc1 | inconclusive [inhibitor, single point] |
| COc1ccc(-c2cn[nH]c2-c2ccc(OCc3ccccc3)cc2O)cc1 | active: 22.4 µM |
| CN1CCC(=C2c3ccccc3CCc3sccc32)CC1 | inconclusive [inhibitor, partial curve] |
| O=c1cc(N2CCN(c3ccccc3Cl)CC2)[nH]c(=O)n1Cc1ccc(F)cc1 | inconclusive [inhibitor, partial curve] |
| CCOc1ccc(NS(=O)(=O)c2ccc3[nH]cc(C(=O)N(CC)CC)c(=O)c3c2)cc1 | inconclusive [activator, single point] |
| COc1ccc(NC(=S)N2CCN(c3ccc([N+](=O)[O-])cc3)CC2)cc1OC | inconclusive [activator, single point] |
| COCC(=O)N1CCC2(CC1)CN(c1ccc(-c3ccccc3)cc1)C2 | inactive |
| Cc1[nH]n(-c2ccc(Cl)cc2)c(=O)c1N=Nc1cccnc1 | inconclusive [inhibitor, partial curve, poor fit] |
| COC(=O)Nc1nc2ccc(C(=O)c3ccc(F)cc3)cc2[nH]1 | inconclusive [inhibitor, partial curve] |
| Cc1ccc2nc(-c3ccc(N4C(=O)CC(N5CCN(CCO)CC5)C4=O)cc3)sc2c1 (centres undefined) | inconclusive [inhibitor, single point] |
| CCc1cccc(C)c1NC(=O)c1ccc(CN2CCc3ccccc3C2)cc1 | inactive |
| CC(=O)N1CCC(=NNc2nc3ccccc3s2)CC1 | inconclusive [inhibitor, full curve] |
| Cc1cccc(OCCCCNCc2ccccc2)c1 | inconclusive [inhibitor, single point] |
| Cc1ccc(OCC(=O)N2N=C(c3ccc(Cl)cc3)CC2c2ccco2)c([N+](=O)[O-])n1 (centres undefined) | inconclusive [inhibitor, single point] |
| Cc1ccc(NCCC(=O)c2ccccc2)cc1Cl | inactive |
| O=C(O)CCC(=O)Nc1ccc(Br)cc1C(=O)c1ccccc1 | inconclusive [inhibitor, single point] |
| Cc1ccc(Cn2c(O)c(N=NC(=S)Nc3ccccc3F)c3ccccc32)cc1 | inconclusive [inhibitor, partial curve] |
